{
  "source": "PubChem BioAssay AID686979",
  "about": "(National Center for Advancing Translational Sciences (NCATS), 2013)",
  "note": "Screen size: about 420,000 compounds; about 50,000 (12%) were called active. The inconclusive results got no clear call from the source; some entries with a clear call stand among them for comparison. Calls follow the shape of the dose curve; as a rule, active = well fitted inhibition curve with a large enough effect; inconclusive = small, poorly fitted or top-dose-only effect; inactive = flat fitted curve, though single readings scatter. No potency is given beside an inconclusive call; the fits are too rough. Where a SMILES comes first, the peptide text is derived from it. The star is where a group is joined. CH2Cl = ClC*",
  "data": [
    {"experiment": "qHTS for Inhibitors of human tyrosyl-DNA phosphodiesterase 1 (TDP1): qHTS in cells in presence of CPT; also: nearly all actives have a fitted effect of over 55% in size; also: potency is read from the fitted curve at half-maximal effect; tags tell the direction and shape of the fitted curve; as to activity change, negative = growth inhibition: % is scaled to controls: 0 for no effect and ±100 for the full control effect", "settings": "chicken DT40 Tdp1-/-;hTDP1 cells + 20 nM CPT, ATP luminescence, 48 h; activity change, negative = growth inhibition: at 46.2 µM (top of the series) unless noted", "procedure,_shortened": "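Chicken DT40 Tdp1-/- cells stably complemented with human TDP1 were seeded at 400 cells/well in medium containing 20 nM camptothecin, exposed to pin-transferred compounds, and grown at 37 °C for at least 48 hr. Viability was read as ATP luminescence.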", "values": [
      {"smiles": "Clc1ccc(N2CCN(c3ncnc4c3cnn4-c3ccccc3)CC2)cc1Cl", "Potency": "inconclusive [inhibitor, partial curve, poor fit]"},
      {"smiles": "Cc1ccc(NCc2nnc(SCC(=O)N(Cc3ccccc3)C(C)(C)C)o2)c(C)c1", "Potency": "inconclusive [inhibitor, partial curve, poor fit]"},
      {"smiles": "O=C(Cc1ccccc1)NCCn1ccc2ccccc21", "Potency": "inactive"},
      {"smiles": "Cn1c(=O)c2c(nc(NN=C3CCCCC3)n2C)n(C)c1=O", "Potency": "inconclusive [inhibitor, single point]"},
      {"smiles": "O=C1N(Cc2cccnc2)C[C@@H]2C[C@@H](c3ccc4nsnc4c3)N3CCC[C@@]123", "activity change, negative = growth inhibition": "inconclusive: -32.6% [inhibitor]"},
      {"smiles": "CCOc1ccc2oc(C(=O)N(Cc3nnc(-c4ccccc4Cl)o3)C3CC3)c(C)c2c1", "Potency": "inconclusive [inhibitor, single point]"},
      {"smiles": "O=C(NCCNC(=O)c1cc(OCC(F)(F)F)ccc1OCC(F)(F)F)Nc1ccccc1", "Potency": "inconclusive [inhibitor, partial curve, poor fit]"},
      {"smiles": "CCn1cc(C2=NCCO2)c2ccccc21", "Potency": "inactive"},
      {"smiles": "CC(NCC(O)COCc1ccc(Cl)cc1)c1ccccc1", "note": "(stereo not drawn)", "Potency": "inconclusive [inhibitor, single point]"},
      {"smiles": "Cc1cccc(C)c1NCc1nnc(SCC(=O)Nc2nc(-c3ccccc3)cs2)n1-c1ccccc1", "Potency": "active: 2.06 µM"},
      {"smiles": "O=C(CCN1C(=O)/C(=C\\c2cccs2)SC1=S)Nc1nccs1", "Potency": "inconclusive [inhibitor, partial curve]"},
      {"smiles": "COc1ccccc1CNC(=O)c1[nH]c(C)c(C(C)=O)c1C", "Potency": "inactive"},
      {"smiles": "CCC(c1nnnn1Cc1ccccc1)N1CCN(c2ccc(OC)cc2)CC1", "note": "(stereo not drawn)", "Potency": "inconclusive [inhibitor, single point]"},
      {"smiles": "CCN(CC)S(=O)(=O)c1cccc(C(=O)N/N=C/c2cccc(O)c2O)c1", "Potency": "active: 3.66 µM"},
      {"smiles": "CC(=O)OCC(=O)[C@@]1(O)[C@H](C)C[C@H]2[C@@H]3C[C@H](F)C4=CC(=O)C=C[C@]4(C)[C@H]3[C@@H](O)C[C@@]21C", "activity change, negative = growth inhibition": "inconclusive: -30.8% [inhibitor]"},
      {"smiles": "NS(=O)(=O)c1ccc(NC(=O)COC(=O)C23CC4CC(CC(C4)C2)C3)cc1", "Potency": "inconclusive [inhibitor, partial curve]"},
      {"smiles": "Cc1ccc(-n2cc(C(=O)Oc3ccc(F)cc3)c3ccccc3c2=O)cc1", "Potency": "active: 16.4 µM"},
      {"smiles": "O=C(CC1C(=O)N(c2ccc(F)cc2)C(=O)N1Cc1ccc2c(c1)OCO2)Nc1ccc(Cl)cc1", "note": "(stereo not drawn)", "Potency": "inconclusive [inhibitor, single point]"},
      {"smiles": "CCCc1cnc(Nc2nc(C(N)Cc3ccc(C(F)(F)F)cc3)cs2)nc1", "note": "(stereo not drawn)", "Potency": "inconclusive [inhibitor, single point]"},
      {"smiles": "COC(=O)[C@H]1C[C@@H]1[C@H](NC(=O)[C@H]1C[C@@H]1[C@H](NC(=O)OCc1ccccc1)c1ccccc1)c1ccccc1", "activity change, negative = growth inhibition": "inconclusive: -35.2% [inhibitor]"},
      {"smiles": "O=C(Nc1ccc2c(c1)C(=O)c1ccccc1-2)c1ccccc1", "Potency": "inactive"},
      {"smiles": "CC(C)c1ccc(O)c(C(=O)c2cnn(-c3ccccc3)c2)c1", "Potency": "inactive"},
      {"smiles": "COc1ccc(N2CCN(C(=O)CSc3nnc(COc4cccc5cccnc45)o3)CC2)cc1", "Potency": "inconclusive [inhibitor, single point]"},
      {"smiles": "COc1ccc(CN(C)C(=O)c2cnc(C)cn2)c(OC)c1OC", "Potency": "inactive"},
      {"smiles": "O=C(CCl)Nc1ccccc1C(=O)NCc1ccccc1", "Potency": "active: 23.1 µM"},
      {"smiles": "O=C(CSc1nc2ccccc2[nH]1)Nc1cc(C(F)(F)F)ccc1N1CCOCC1", "activity change, negative = growth inhibition": "inconclusive: -30.5% [inhibitor]"},
      {"smiles": "CCOC(=O)C1(C)CCN1C(=O)COc1ccc(C(C)(C)C)cc1", "note": "(stereo not drawn)", "Potency": "active: 20.6 µM"},
      {"smiles": "CC(=O)C(Sc1ncnc2sc3c(c12)CCCC3)C(C)=O", "Potency": "active: 13 µM"},
      {"smiles": "CC(C)C[C@@H](CN1CCCC1CN1C(=S)NC[C@@H]1Cc1ccc(O)cc1)N1C[C@H](Cc2ccccc2)N(CC2CCCCCC2)C1=S", "note": "(stereo partly drawn)", "Potency": "inconclusive [inhibitor, single point]"},
      {"smiles": "C/C(=C\\c1ccco1)C1C(C#N)=C(N)Oc2n[nH]c(-c3ccc(C)cc3)c21", "note": "(stereo not drawn)", "Potency": "active: 16.4 µM"},
      {"smiles": "COc1ccccc1N1CCN(C(=O)C(=O)c2c(C)[nH]c3ccccc23)CC1", "Potency": "inactive"},
      {"smiles": "COc1ccc(C(=O)Nc2cc(Cl)ccc2OC(=O)c2ccc(OC)cc2)cc1", "Potency": "inconclusive [inhibitor, single point]"},
      {"smiles": "CN1CCN(S(=O)(=O)c2ccc(N(C)Cc3ccc(C(F)(F)F)cc3)c([N+](=O)[O-])c2)CC1", "Potency": "active: 10.3 µM"},
      {"smiles": "COc1cccc(NC(=O)/C=C/c2ccco2)c1", "Potency": "inactive"},
      {"smiles": "CN1C(=O)/C(=C2\\SC(N3CCCCCC3)=NC2=O)c2ccccc21", "Potency": "inconclusive [inhibitor, single point]"},
      {"smiles": "COc1cccc(Cn2c(=O)c(-c3ccccc3)nc3cnc(N(C)C)nc32)c1", "Potency": "inconclusive [inhibitor, single point]"},
      {"smiles": "O=C(Nc1ccc2c(c1)[C@@H]1C[C@@H](CC(=O)N3CCCCC3)O[C@@H](CO)[C@@H]1O2)NC1CCCCC1", "Potency": "inactive"},
      {"smiles": "COc1ccc(C(NC(=O)C2CCN(CCCOc3ccccc3)CC2)c2ccccn2)cc1", "note": "(stereo not drawn)", "Potency": "inactive"},
      {"smiles": "Cc1ccc(C)c(Oc2ncnc(N)c2[N+](=O)[O-])c1", "Potency": "inactive"},
      {"smiles": "C#Cc1ccc(NC(=O)C2(C)CCN2C(=O)C/C=C/c2ccccc2)cc1", "note": "(stereo not drawn)", "Potency": "active: 16.4 µM"},
      {"smiles": "Cn1nc(C(C)(C)C)cc1C(=O)NCc1ccc2c(c1)OCO2", "Potency": "active: 4.61 µM"},
      {"smiles": "COC(CNC(=O)c1ccc2c(c1)ncn2-c1ccc(C)cc1C)OC", "Potency": "inactive"},
      {"smiles": "CC1(C(=O)N2Cc3ccccc3C2)CCN1C(=O)C1(c2ccccc2)CC1", "note": "(stereo not drawn)", "Potency": "inconclusive [inhibitor, single point]"},
      {"smiles": "CCC(C)[C@H](NC(=O)OC(C)(C)C)C(=O)N/N=C/C1=Cc2ccccc2OC1", "note": "(stereo partly drawn)", "Potency": "inconclusive [inhibitor, single point]"},
      {"smiles": "CCOC=C1SC(=S)N(c2ccccc2OC)C1=O", "Potency": "inactive"},
      {"smiles": "O=C1Nc2ccc([N+](=O)[O-])cc2OC1CCN1CCN(Cc2ccc3c(c2)OCO3)CC1", "note": "(stereo not drawn)", "Potency": "inactive"},
      {"smiles": "COc1ccc(Oc2nc(-c3ccccn3)nc3ccccc23)cc1", "Potency": "active: 3.26 µM"},
      {"smiles": "CCN(CC)CCNC(=O)CCCCCn1c(=O)[nH]c2cc(C(=O)OC)ccc2c1=O", "Potency": "inactive"},
      {"smiles": "COc1ccc(N(C(=O)c2ccncc2)S(=O)(=O)c2ccc3c4c(cccc24)C(=O)N3C)cc1", "Potency": "active: 18.4 µM"},
      {"smiles": "COc1ccc(-c2nc3cnc(N4CCNCC4)nc3n(-c3ccccc3)c2=O)cc1", "Potency": "active: 20.6 µM"},
      {"smiles": "COc1cc(-c2[nH]ncc2CN2CCSCC2)cc(OC)c1OC", "Potency": "inconclusive [inhibitor, single point]"},
      {"smiles": "CS(=O)(=O)Nc1cccc(-c2cc(NC=O)c3ncc(-c4ccc(F)cc4)n3c2)c1", "Potency": "active: 23.1 µM"},
      {"smiles": "O=C(CCN=C1NS(=O)(=O)c2ccccc21)N1CCc2ccccc2C1", "Potency": "inactive"},
      {"smiles": "Cc1ccc(NC(=O)CN(C)C(C)C(=O)Nc2ccc(S(=O)(=O)N3CCCC3)cc2)cc1", "note": "(stereo not drawn)", "Potency": "active: 18.4 µM"},
      {"smiles": "CCCCC1=CC2=CC(=O)C(C)(OC(=O)CC)C(=O)C2=CN1Cc1ccccc1", "note": "(stereo not drawn)", "Potency": "active: 13 µM"},
      {"smiles": "O=C(CSc1ccccn1)N1CCN(C(=O)CSc2ccccn2)CC1", "Potency": "inactive"},
      {"smiles": "N/C(=N\\OC(=O)N1c2ccccc2Sc2ccccc21)c1ccccc1", "Potency": "inconclusive [inhibitor, single point]"},
      {"smiles": "Cc1ccc(SCC(=O)NC(=O)NC2CCCC2)c(C)c1", "Potency": "inactive"},
      {"smiles": "CC(=O)NC(CC(C)C)C(=O)NC(Cc1ccccc1)C(=O)CCl", "note": "(stereo not drawn) (Ac-Leu-Phe-CH2Cl; configuration not given here)", "Potency": "active: 2.31 µM"},
      {"smiles": "CC1CCCC(NC(=O)Cn2cc(Br)ccc2=O)C1C", "note": "(stereo not drawn)", "Potency": "inconclusive [inhibitor, single point]"},
      {"smiles": "CSc1nc2ccccc2cc1/C=C(\\C#N)c1ccc(Cl)c(Cl)c1", "activity change, negative = growth inhibition": "inconclusive: -30.8% [inhibitor]"},
      {"smiles": "CC(C)(C)c1nc2ccccc2c2nnc(SCC(=O)Nc3nc4ccccc4s3)n12", "Potency": "inconclusive [inhibitor, single point]"},
      {"smiles": "CC(=O)NC(c1cccc(F)c1)c1nc(-c2cccc(F)c2)cs1", "note": "(stereo not drawn)", "Potency": "inconclusive [inhibitor, single point]"},
      {"smiles": "O=C(Nc1ccc2c(c1)OCCO2)c1ccc2nccnc2c1", "Potency": "inconclusive [inhibitor, single point]"},
      {"smiles": "CCCCCCCCCCCCSCCOCCO", "Potency": "inactive"},
      {"smiles": "Cc1nn(-c2ccccc2)c(N2CCCC2)c1/C=N/O", "Potency": "inconclusive [inhibitor, single point]"},
      {"smiles": "CC1CCCCC1NC(=O)c1cn(C)c2ccc(S(=O)(=O)N3CCCC3)cc2c1=O", "note": "(stereo not drawn)", "Potency": "inconclusive [inhibitor, single point]"},
      {"smiles": "Oc1cc(CNC2CCCCC2)c(O)cc1CNC1CCCCC1", "Potency": "active: 18.4 µM"},
      {"smiles": "O=C(N/N=C/C=C/c1ccccc1[N+](=O)[O-])c1cccs1", "Potency": "inconclusive [inhibitor, single point]"},
      {"smiles": "COc1ccc(OC)c(CNc2ccc3c(c2)CCC3)c1", "Potency": "inconclusive [inhibitor, single point]"},
      {"smiles": "Cc1ccc(OCC(=O)Nc2ccc(S(=O)(=O)Nc3ccccn3)cc2)cc1", "Potency": "inactive"},
      {"smiles": "COc1cccc(Oc2ccc(C(F)(F)F)cc2NC(=O)CCc2nc3ccccc3c(=O)[nH]2)c1", "Potency": "active: 16.4 µM"},
      {"smiles": "CCCCCN=Cc1c(C)[nH]n(-c2nc3ccccc3s2)c1=O", "Potency": "active: 2.06 µM"}
    ]}
  ]
}
